Assay results from patent US11890324B2, “Compounds for use in inducing myocardial perfusion recovery” (Epoqe Pharma ApS, priority 2018, dated 2024).

Test system: rats with acute myocardial infarction (permanent LAD occlusion)
Assay: Rat model of acute myocardial infarction (permanent LAD occlusion), myocardial perfusion imaging by SPECT/CT
Conditions: in vivo

Substance: N-alpha-[2-(2-{2-[(S)-4-Carboxy-4-(17-carboxyheptadecanoylamino)-butyrylamino]-ethoxy}ethoxy)acetyl](Ser1]alpha-human CGRP peptide [Compound I]
- Rats that died after the first treatment but before SPECT scan: 29%
